# Results from PubChem BioAssay AID488969 (Vanderbilt High Throughput Screening Facility, 2010).
# The full ranking holds about 110,000 compounds; the median of “z-score” is about -0.1, and the highest 2% start at about 2. The list shows a part of the results. Activity calls are given as the source filed them.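 The calls were made as follows: active = z-score in the third read window above 3 or below -3; inactive = the rest.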
# Target: Metabotropic glutamate receptor 8 (Rattus norvegicus) (UniProt P70579)
# Chain of UniProt P70579 (P70579 whole entry, looked up): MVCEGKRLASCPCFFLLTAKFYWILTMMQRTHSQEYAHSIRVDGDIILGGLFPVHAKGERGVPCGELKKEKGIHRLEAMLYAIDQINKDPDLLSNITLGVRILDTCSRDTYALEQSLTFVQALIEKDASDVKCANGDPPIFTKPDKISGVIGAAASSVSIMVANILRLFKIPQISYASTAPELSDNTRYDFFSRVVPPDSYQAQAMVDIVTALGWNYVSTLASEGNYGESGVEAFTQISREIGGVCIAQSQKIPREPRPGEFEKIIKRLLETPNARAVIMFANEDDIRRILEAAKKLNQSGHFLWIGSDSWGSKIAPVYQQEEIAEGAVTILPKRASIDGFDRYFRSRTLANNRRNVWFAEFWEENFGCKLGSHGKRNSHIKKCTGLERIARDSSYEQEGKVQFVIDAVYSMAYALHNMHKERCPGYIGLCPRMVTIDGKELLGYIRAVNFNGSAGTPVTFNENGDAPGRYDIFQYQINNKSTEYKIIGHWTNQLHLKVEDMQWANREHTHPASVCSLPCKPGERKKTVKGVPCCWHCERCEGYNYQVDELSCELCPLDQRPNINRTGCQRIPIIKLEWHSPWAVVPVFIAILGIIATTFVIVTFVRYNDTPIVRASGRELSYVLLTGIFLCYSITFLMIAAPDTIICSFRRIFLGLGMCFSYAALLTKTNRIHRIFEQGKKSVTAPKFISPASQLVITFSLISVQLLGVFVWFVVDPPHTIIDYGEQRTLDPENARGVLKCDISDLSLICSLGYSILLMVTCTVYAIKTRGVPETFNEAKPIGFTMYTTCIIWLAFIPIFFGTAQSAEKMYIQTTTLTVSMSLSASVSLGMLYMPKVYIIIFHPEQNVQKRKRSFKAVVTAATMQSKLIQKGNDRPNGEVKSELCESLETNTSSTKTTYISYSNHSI
# Experiment: rat mGluR8 modulators via GIRK flux, primary screen, cell-based, thallium flux, HTS (AID 488969)
# Conditions: HEK293 rat mGluR8, GIRK (G protein-gated inwardly rectifying potassium channel) thallium flux, FluoZin2; at 10 µM; stronger effect = higher value; submaximal glutamate (EC20) added with thallium
row,SMILES,z-score
1,O=C(CCCOc1ccc(Cl)cc1Cl)NNC(=O)c1ccc(NC(=O)c2ccccc2)cc1,-0.0338
2,O=C(Nc1ccccc1OC(F)F)c1cc2c(s1)CCC2,0.635
3,Cc1cc(C)nc(SCc2nnc(SCC(N)=O)n2Cc2ccco2)n1,-0.127
4,COc1ccc(CN2CC(C(=O)NCCCN3CCOCC3)CC2=O)cc1 (stereo not given),0.952
5,O=C(O)CC(Cn1cnnn1)c1ccccc1 (stereo not given),-0.637
6,Cc1c(C(=S)Nc2ccccc2)cnn1-c1ccccc1,-0.398
7,Cc1ccc(S(=O)(=O)n2nc(OC(=O)C(C)(C)C)cc2N)cc1,0.349
8,Cc1ccc(C2CN(c3ccccc3)CC2C(=O)c2ccc(F)cc2)cc1 (stereo not given),-0.147
9,CCOc1ccccc1Nc1nc2ccccc2[nH]1,0.0899
10,O=C(Nc1ccc2nc3n(c(=O)c2c1)CCCC3)c1cccc([N+](=O)[O-])c1,-0.5
11,O=C(NNC(=O)c1ccc([N+](=O)[O-])o1)c1ccccc1,0.454
12,CS(=O)(=O)N1CCN(c2nc3ccccc3s2)CC1,-0.163
13,O=C(NCc1cccs1)C1CCN(C(=O)NCc2ccccc2)CC1,-0.0865
14,Cc1ccc(SCCNC(=O)c2ccccc2)cc1,-0.743
15,N#Cc1ccccc1Sc1ccccc1C(=O)Nc1ccc(Br)cc1,-0.0649
16,CCC(=O)NC(c1ccccc1OC)c1ccc2cccnc2c1O (stereo not given),0.035
17,Cc1ccc(C(=O)Nc2ccon2)cc1S(=O)(=O)N1CCCCCC1,-0.109
18,Cc1cccc(NCC(=O)N/N=C\c2cccc(Oc3ccccc3)c2)c1,-0.0128
19,N#Cc1cc(Oc2ccc3ccccc3c2)c(-n2nnc3ccccc32)cc1C#N,-0.0816
20,O=C(Nc1ccc2c(c1)OCCO2)C1CCN(S(=O)(=O)c2ccc3c(c2)OCCO3)CC1,-0.0861
21,CSCC[C@H](NC(=O)OC(C)(C)C)c1nnc(SCC(=O)Nc2ccc(C)cc2C)o1,-1.24
22,Cc1cc(NC(=O)c2c(Cl)c(C)nn2C)no1,-0.00215

row,SMILES,z-score
1,CCOC(=O)c1cc(NC(=O)SCC(=O)O)c(C)nc1C,-0.394
2,CC1=C(C(=O)N2CCc3ccccc32)C2(CCC(C)CC2)OC1=O (stereo not given),-1.29
3,Cc1cccc(N/C(N)=N/c2nc(C(F)(F)F)cc(=O)[nH]2)c1C,-0.582
4,COc1cccc(CNC(=S)NC2CCCC2)c1,0.138
5,Cc1cc2nc(-c3ccc(SCC(=O)Nc4nccs4)nc3)[nH]c2cc1C,0.000459
6,COc1ccc(CCN2C(=O)C3C4CCC(C4=C(C)C)C3C2=O)cc1OC (stereo not given),0.225
7,Cc1nn(-c2ccccc2)c(Cl)c1/C=C1\SC(=S)NC1=O,-0.842
8,O=C(/C=C/c1cccs1)c1ccc(NC(=O)c2ccccc2F)cc1,0.039
9,CCN1CCN(Cc2c(O)ccc3c2O/C(=C\C=C\c2ccccc2)C3=O)CC1,-2.09
10,CNC(=O)Cn1nc(-c2ccc(C)c(S(=O)(=O)N(C)C)c2)c2ccccc2c1=O,-0.177
11,COc1ccc2nc(SCC(C)=O)c(C#N)cc2c1,-0.351
12,CCc1nc2n[nH]c(N)c2c2c1CSC(C)(C)C2,-0.133
13,CCCCN(Cc1ccccc1)S(=O)(=O)c1cc(Br)cc2c1N(C(C)=O)C(C)C2 (stereo not given),2.82
14,Cc1ccc2nc(-c3ccccc3)cc(C(=O)NCCCn3ccnc3)c2c1,-0.0532
15,Cn1c(Oc2ccc3c(c2)OCO3)nc2c1c(=O)n(Cc1ccccc1)c(=O)n2C,0.00536
16,COc1cc2c(cc1Cl)/C(=C\CCN(C)C)c1ccccc1S2,-0.852
17,CC1=C(OC(=O)c2ccccc2)C(C)(C)C(c2ccc(Br)cc2)OC1=O (stereo not given),-0.0965
18,CCOC(=O)c1ccc2nc(C)c3c(c2c1)OC(C)C3 (stereo not given),-0.139
19,O=C(Nc1cn(-c2ccccc2)nc1-c1ccc(Cl)cc1)c1ccccc1,0.0198
20,COCCN(CCOC)C(=O)c1c[nH]c2ccc(S(=O)(=O)N(C)c3ccc(F)cc3)cc2c1=O,-0.262
21,O=C(Nc1ccccc1)c1cc(S(=O)(=O)N2CCSCC2)ccc1Cl,-0.136
22,O=C(COC(=O)c1ccc2c(c1)OCCO2)Nc1cc(Cl)ccc1Cl,-0.0938

row,SMILES,z-score
1,CCCc1noc2c1/C(=N\O)CC(CC(C)SCC)C2 (stereo not given),1.33
2,CCCCn1c(SCC(=O)c2ccc(O)c(O)c2)nc2ccsc2c1=O,-0.525
3,CNc1c([N+](=O)[O-])cnn1-c1ccccc1Cl,0.041
4,CC1=Nc2ccccc2N=C(NC(=O)CSc2nnnn2-c2ccccc2)C1c1ccccc1 (stereo not given),1.13
5,COc1cc2c(cc1OC)-c1cc(NCc3ccccn3)nc(=O)n1CC2,-0.287
6,Cc1ccc(N2C(S)=C(C#N)C(=O)NC2c2cccs2)cc1 (stereo not given),-0.463
7,COc1cc(C(=O)NCc2nnc(SCC(=O)N3CCC(C)CC3)o2)cc(OC)c1OC,-0.273
8,CCCc1cc(=O)oc2c(C)c(OS(C)(=O)=O)ccc12,-0.0283
9,CN1CCN(C2CC(=O)N(c3ccc4c(c3)OCCO4)C2=O)CC1 (stereo not given),0.0626
10,Fc1ccc(-c2cc3nc(-c4ccccc4)cc(N4CCOCC4)n3n2)cc1,-0.31
11,COC(=O)COc1ccc(S(=O)(=O)Nc2ccc(C(N)=O)cc2)cc1,-0.116
12,CCN(CC)CC(=O)c1c[nH]c2ccc(OC)cc12,-0.172
13,CCc1ccc(-n2c(SCC(=O)Nc3cccc(S(=O)(=O)NC4=NCCCCC4)c3)nc3ccccc3c2=O)cc1,0.908
14,CCn1cc(C(=O)O)c(=O)c2cnc(N3CCN(C(=O)Nc4ccccc4)CC3)nc21,-0.186
15,Cc1sc2nc(SCc3ccccc3)n(Cc3ccco3)c(=O)c2c1C,0.0771
16,COc1ccccc1NC(=O)CSc1nnc(-c2ccccc2)o1,-0.282
17,CC(C)C(=O)NC(c1ccco1)c1ccc2cccnc2c1O (stereo not given),-0.678
18,CN(C)c1nc(Oc2ccc(=O)[nH]n2)nc(N2CCCCC2)n1,-0.303
19,COc1ccccc1N1CCN(C(=O)c2c(-c3ccccc3)noc2C)CC1,-0.634
20,O=C(N1CCN(c2ccccc2)CC1)C1(c2cccs2)CCOCC1,-0.389
21,CCCC(=O)OCCNc1cc(SCCC(=O)OC)c2nonc2c1[N+](=O)[O-],-0.658
22,CC12CCC(C(=O)N(NC(=O)c3cc(Cl)ccc3O)C1=O)C2(C)C (stereo not given),0.00208

row,SMILES,z-score
1,Nc1c(C(=O)NCc2ccco2)nnn1Cc1ccccc1,-1.11
2,CC(=O)Nc1ccc(N2C(=O)CC(c3ccccc3)CC2=O)cc1,-0.815
3,O=C(NC(=S)Nc1ccc(N2CCOCC2)cc1)c1ccc(Cl)cc1,0.272
4,COc1oc(-c2ccccc2C)nc1C(F)(F)F,0.396
5,Cc1ccc(-c2nnc(-c3ccccc3)c(-c3ccccc3)n2)cc1,0.135
6,COc1ccc(C(=O)c2coc3ccc(O)c(CN(C)C)c23)cc1,-0.087
7,C/C(CC(=O)Nc1ccc(Cl)c(C(F)(F)F)c1)=N\NC(=O)c1cc2ccccc2cc1O,-0.301
8,CS(=O)(=O)Nc1ccc(C(=O)NCc2ccccn2)cc1,0.287
9,COc1ccccc1N1CCN(C(CNC(=O)c2ccco2)c2cccnc2)CC1 (stereo not given),1.2
10,C=CCn1c(COc2ccccc2)nnc1SCC(=O)Nc1ccc(S(N)(=O)=O)cc1,-1.17
11,COc1ccccc1OCC(=O)N(Cc1nc(-c2ccc(Cl)cc2)no1)C(C)C,0.436
12,COc1cc(NS(=O)(=O)c2ccc(N=Cc3c(C)[nH]n(-c4ccccc4)c3=O)cc2)nc(OC)n1,-0.513
13,COc1ccc(CCNC(=O)C2CCCN(c3nn4c(=O)cc(C)nc4s3)C2)cc1OC (stereo not given),0.0747
14,CC1CN=C(N(C(=O)Nc2ccccc2)c2ccc(F)cc2)S1 (stereo not given),-0.149
15,COc1ccc2c(c1)C(C)=CC(C)(C)N2C(=O)CN1C(=O)CCC1=O,0.17
16,CC(=O)NC1=NC(=O)/C(=C/N2CCOCC2)S1,0.342
17,CC(C)C(=O)c1cc2c(cc1NC(=O)c1ccccc1)OCCO2,-0.135
18,Cc1nnc(SCC(C)C)[nH]c1=O,0.0794
19,O=C(Cc1ccc([N+](=O)[O-])cc1)Nc1cccc(C(F)(F)F)c1,0.433
20,Cc1ccc(CN2CCNC(=O)C2CC(=O)O)cc1 (stereo not given),-0.134
21,O=C(NCc1ccco1)c1cc(-c2ccco2)on1,0.971
22,Cc1noc(NS(=O)(=O)c2ccc(N/C=C\C(=O)c3ccncc3)cc2)c1C,-0.456

row,SMILES,z-score
1,CCC(=O)Nc1ccccc1N1CCN(S(C)(=O)=O)CC1,-0.277
2,CCOC(=O)C(C)Oc1ccc2c(CC)cc(=O)oc2c1C (stereo not given),active: -5.15
3,CCCNC(=O)c1ccccc1NC(=O)c1ccccc1N(C)S(C)(=O)=O,0.251
4,COc1ccc(OC)c(N=Cc2c(O)[nH]c3ccccc23)c1,0.195
5,CCN(CC)c1ccc(/C=N/NC(=S)NCc2ccccc2)c(O)c1,-0.243
6,Nc1ccccc1SCc1cn2cccnc2n1,0.462
7,CCOC(=O)CSc1nnc(CNc2ccc(F)cc2)o1,-0.628
8,CC(C)(C)C1CCC2(CC1)Nc1cccc3cccc(c13)N2,active: 4.88
9,O=C(CSc1ccc2ccccc2c1)NCc1cccs1,0.0417
10,CCCn1c(SCC(=O)Nc2ccccc2N2CCOCC2)nc2c1c(=O)n(C)c(=O)n2C,-0.0247
11,CCOC(=O)C1C(=O)CC(C)(O)C(C(=O)OCC)C1c1ccccc1 (stereo not given),0.114
12,Cc1cccc(NC(=O)c2cnc3sccn3c2=O)n1,0.185
13,CCOC(=O)c1[nH]c(COC(=O)c2ccccc2NC(=O)c2ccco2)c(C(=O)OCC)c1C,0.679
14,O=C(CCc1ccccc1)NC(NC(=S)Nc1ccc(Cl)cc1)C(Cl)(Cl)Cl (stereo not given),0.241
15,COc1ccc(N/C=C\C(=O)c2ccc3c(c2)OCO3)cc1OC,-0.826
16,CCC(C)(C)n1nnnc1CN1CCC(O)(c2cccc(C(F)(F)F)c2)CC1,-0.0568
17,c1ccc(Oc2ccc(-c3ccnc4nc(N5CCN(c6ccccc6)CC5)nn34)cc2)cc1,0.0401
18,Cc1occc1C(=O)Nc1c(F)cc(F)cc1Br,0.255
19,Cc1ccc(S(=O)(=O)Nc2nc(C)c(NC(=O)Nc3ccc(Cl)cc3Cl)s2)cc1,-0.401
20,CC(=O)Nc1ccc(S(=O)(=O)NCC(=O)OCC(=O)N2CCc3ccccc32)cc1,-0.171
21,CCOCCCNC(=S)N1C2CCC1CC(NC(=O)NC13CC4CC(CC(C4)C1)C3)C2 (stereo not given),-0.967
22,Cc1ccccc1OCCSCc1nc2ccccc2[nH]1,-0.179
